# Among all 310,000 compounds or so, about 2,200 (0.71%) showed an effect of 50% or more. Effects have a minus sign here. This is one part of the list.
# Molecular target: human ether-à-go-go-related gene (hERG) potassium channel (human, UniProt Q12809)
# Assay: primary screen, population patch clamp on CHO cells stably expressing hERG
# Chain of human ether-à-go-go-related gene (hERG) potassium channel (Q12809 whole entry, looked up): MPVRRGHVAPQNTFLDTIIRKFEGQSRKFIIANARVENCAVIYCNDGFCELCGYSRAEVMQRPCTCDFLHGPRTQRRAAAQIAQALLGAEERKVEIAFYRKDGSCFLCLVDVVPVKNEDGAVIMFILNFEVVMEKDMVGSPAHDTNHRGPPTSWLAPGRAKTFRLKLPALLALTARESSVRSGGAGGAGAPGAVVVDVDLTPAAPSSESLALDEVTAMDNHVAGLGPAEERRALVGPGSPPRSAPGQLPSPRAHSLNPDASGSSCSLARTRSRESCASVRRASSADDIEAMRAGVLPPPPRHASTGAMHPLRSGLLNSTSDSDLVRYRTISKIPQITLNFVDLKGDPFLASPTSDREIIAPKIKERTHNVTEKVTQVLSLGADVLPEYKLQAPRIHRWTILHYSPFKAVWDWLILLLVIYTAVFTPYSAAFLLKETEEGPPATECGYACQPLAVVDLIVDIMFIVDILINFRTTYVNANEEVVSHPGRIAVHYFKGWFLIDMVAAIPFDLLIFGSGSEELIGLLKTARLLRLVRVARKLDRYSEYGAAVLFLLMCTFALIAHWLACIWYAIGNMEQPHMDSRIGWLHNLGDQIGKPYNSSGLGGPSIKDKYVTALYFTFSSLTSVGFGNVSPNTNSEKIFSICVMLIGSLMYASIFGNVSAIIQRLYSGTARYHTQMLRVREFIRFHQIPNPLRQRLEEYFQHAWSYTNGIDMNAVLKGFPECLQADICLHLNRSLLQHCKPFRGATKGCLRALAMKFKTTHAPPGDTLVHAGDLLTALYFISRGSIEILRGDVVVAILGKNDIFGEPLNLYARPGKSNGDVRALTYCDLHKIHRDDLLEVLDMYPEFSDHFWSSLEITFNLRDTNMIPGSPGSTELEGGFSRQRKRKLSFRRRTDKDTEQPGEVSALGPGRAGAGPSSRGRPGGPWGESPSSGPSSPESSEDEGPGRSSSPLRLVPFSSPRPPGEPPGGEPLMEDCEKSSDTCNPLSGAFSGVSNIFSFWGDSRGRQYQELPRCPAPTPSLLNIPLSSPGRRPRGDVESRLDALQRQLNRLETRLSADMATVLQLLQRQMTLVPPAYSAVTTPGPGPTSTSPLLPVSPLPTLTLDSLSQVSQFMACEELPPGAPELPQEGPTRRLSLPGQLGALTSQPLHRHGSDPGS
row,Structure (SMILES),"hERG current change (%, negative = inhibition) at 1uM [%]"
1,CCCCCN(C(=O)CCC(=O)OCc1ccccc1C(F)(F)F)c1c(N)n(CCCC)c(=O)[nH]c1=O,8.03
2,NS(=O)(=O)c1cccc(NC(=O)COC(=O)Cc2ccc(S(=O)(=O)N3CCCCC3)s2)c1,1.16
3,O=C(Nc1ccc(O)cc1)/C(=C\c1cccs1)NC(=O)c1ccccc1,7.03
4,COc1ccc(C)c(NC(=O)C2CC(=O)NC3=C2C(=O)CCC3)c1 (stereo not shown),1.89
5,O=C(NCCN1CCCCC1)Nc1ccc(F)cc1,4.47
6,Cn1c(=O)c2c(nc(-n3ccnc3)n2Cc2ccccc2)n(C)c1=O,9.25
7,O=C1CC(NS(=O)(=O)c2ccc(F)cc2)CN1c1ccc2c(c1)OCCO2 (stereo not shown),-6.33
8,COc1ccc(C(=O)Nn2c(CC(C)C)nc3cc(OC)c(OC)cc3c2=O)c(OC)c1,10.1
9,O=C(NC(=S)N1CCc2ccccc21)C1CCC1,5.93
10,COC(C(=O)N/N=C(\C)CC(=O)Nc1ccc(N(C)C)cc1)c1ccccc1 (stereo not shown),12.1
11,CCOc1cccc(/C=C2\NC(=S)N(c3ccccc3)C2=O)c1O,15.1
12,CCc1c(C)nc2c(Br)cccc2c1SCCC#N,14.9
13,Cc1nc2ccc(S(=O)(=O)NC(CC(C)C)C(=O)O)cc2s1 (stereo not shown),16.5
14,COc1ccc(S(=O)(=O)N2C3CCC2CC(NC(=O)NC2CCCCC2)C3)cc1 (stereo not shown),12.5
15,CC1(C)CC(=O)C(/C=N/n2cnc3ccccc3c2=O)=C(O)C1,10.9
16,CC1CCC(NC(=O)c2cc3ccccc3cc2O)CC1 (stereo not shown),5.28
17,COc1ccc(CC(NC(C)=O)C(=O)NC2CCN(C(=O)Nc3ccc(Cl)cc3)CC2)cc1OC (stereo not shown),10.2
18,Cc1cc(C)nc(-n2ncc3c2CC(C)CC3=O)n1 (stereo not shown),11.4
19,Cc1cc(-c2nnc(SCCC(=O)Nc3ccccc3)o2)no1,5.74
20,COc1ccc(C(=O)N2CCc3ccccc32)cc1,-2.9
21,Cc1ccccc1N(CC(=O)NC1CCCC1)C(=O)C1(C)CC(=O)N=C2C=CC(Cl)=CN21 (stereo not shown),6.51
22,O=C(CCNS(=O)(=O)c1ccc(Br)cc1)NCc1ccc2c(c1)OCO2,-1.76

row,Structure (SMILES),"hERG current change (%, negative = inhibition) at 1uM [%]"
1,COc1ccc(N2CCN(CC(=O)NC(=O)NCc3ccco3)CC2)cc1,10.9
2,O=C(Nc1ccc(S(=O)(=O)NCC2CCCO2)cc1)c1ccc(Cl)cc1[N+](=O)[O-] (stereo not shown),2.26
3,Cc1cc(C(=O)N2CCCC(C(=O)c3ccc4ccccc4c3)C2)n(C)n1 (stereo not shown),13.5
4,COCC(C)NC(=O)c1cc2cc(OC)ccc2[nH]1 (stereo not shown),6.49
5,CCNC(=O)NC(=O)C(C)OC(=O)C1CCN(S(=O)(=O)c2ccc(C)c(C)c2)CC1 (stereo not shown),9.18
6,CC(=O)c1ccccc1NC(=O)CCNC(=O)c1ccco1,22.1
7,N#Cc1c(SCC(N)=O)nc2c(c1-c1ccc(O)cc1)CCCC2,6.79
8,COc1ccc(S(=O)(=O)N(CC(=O)NCc2ccncc2)c2ccc(C)cc2)cc1OC,14.4
9,Cc1ccc(-c2c(C)n([O-])c3c([n+]2=O)CCC3)o1,16.5
10,Cc1sc2nc(SCC(=O)c3cccs3)n(Cc3ccco3)c(=O)c2c1C,-4.53
11,CCSc1nc2ccccc2c(=O)n1CCc1ccc(OC)c(OC)c1,16.5
12,CCOC(=O)N1CCN(C(=O)c2ccc(NS(=O)(=O)c3ccc4[nH]c(=O)[nH]c4c3)cc2)CC1,0.0867
13,COc1ccc(NC(=O)CSc2nc3nc(-c4cccs4)cc(C(F)(F)F)c3c(=O)[nH]2)c(OC)c1,-1.97
14,Cc1cc(C(C)C)n2c(nc3ccccc32)c1C#N,-6.89
15,CC/C(C)=N/N1C(=O)c2ccccc2NC1(C)CC (stereo not shown),6.09
16,CCOc1ccc(N2CC(C(=O)NCCN3C(=O)S/C(=C\c4cccnc4)C3=O)CC2=O)cc1 (stereo not shown),16.3
17,Cc1ccc(C(=O)N2CCCC(C(F)(F)F)C2)cc1S(=O)(=O)N1CCCCC1 (stereo not shown),2.4
18,Cc1cccc(C)c1N1CCN(S(=O)(=O)c2ccc(F)cc2)CC1,9.27
19,Cc1cc(Cl)c2cc3ccccc3cc2n1,10.5
20,O=C(CSc1nc2cc(C(F)(F)F)ccc2n1Cc1ccccc1)NC1CCS(=O)(=O)C1 (stereo not shown),-0.191
21,COc1ccc(NS(=O)(=O)c2cccc(NC(=O)c3ccc(S(=O)(=O)N4CCCCCC4)cc3)c2)cc1,2.48
22,COc1ccc(C)cc1NS(=O)(=O)c1ccc2c(c1)oc(=O)n2C,14.5

row,Structure (SMILES),"hERG current change (%, negative = inhibition) at 1uM [%]"
1,COc1ccc(NS(=O)(=O)c2cc(C)ccc2OC)cc1OC,9.26
2,COc1ccccc1NC(=O)c1ccc(COc2ccc3c(c2)CCC3)cc1,7.43
3,Clc1ccc2nc(CSc3ccccc3)cn2c1,9.26
4,O=C(Nc1cccnc1)Nc1ccccn1,8.59
5,COc1cc(C(=O)NC(=S)Nc2ccc(NC(=O)c3ccco3)cc2)cc(OC)c1OC,2.75
6,Cc1cc(C)n(CCCNC(=O)c2ccc3c(c2)NC(=O)CS3)n1,16.7
7,CC1Cc2ccccc2N1Cc1ccc([N+](=O)[O-])cc1 (stereo not shown),17.6
8,Cc1ccc(NC(=O)CCC(=O)N/N=C/c2cc([N+](=O)[O-])ccc2O)cc1,7.56
9,O=C1OCC/C1=C\c1ccccc1O,8.27
10,CCOc1c(Br)cc(/C=C(\C#N)C(=O)NC2CC2)cc1OC,5.92
11,CC(C)N(CCc1ccncc1)C(=O)Nc1ccc(F)cc1,11.4
12,CC(=O)N1CCN(CC(=O)Nc2ccc3c(c2)CCC3)CC1,11.1
13,O=C(N/N=C/c1ccccn1)c1cccc([N+](=O)[O-])c1,9.34
14,c1ccn2c(CNc3ncnc4sccc34)nnc2c1,13.1
15,Cc1cc(C)c(-c2csc(NC(=O)COC(=O)c3ccc4c(c3)OCO4)n2)c(C)c1,-1.36
16,Cn1c(SCC(=O)NCc2ccc3c(c2)OCO3)nc2scc(-c3cccs3)c2c1=O,9.47
17,CC(=Nc1cccc(C)c1)c1sc2ccccc2c1O,4.32
18,CC(=O)COc1ccc2c3c(c(=O)oc2c1C)CCCCC3,-3.73
19,COc1cc2c(cc1OC)CN(C(=O)c1cc(S(=O)(=O)N3CCOCC3)ccc1Cl)CC2,-0.583
20,Cc1nn(-c2ccccc2)nc1C(N)=O,16.5
21,CCCn1c(N)c(N(CCOC)C(=O)c2ccc(-c3ccccc3)cc2)c(=O)[nH]c1=O,10.1
22,N#Cc1ccc(C(=O)NCC(c2ccco2)N2CCCC2)cc1 (stereo not shown),4.01

row,Structure (SMILES),"hERG current change (%, negative = inhibition) at 1uM [%]"
1,O=C(CNC(=O)c1ccccc1)NCC1COc2ccccc2O1 (stereo not shown),1.02
2,Cc1oc(C2CC2)cc1C(=O)O,-0.675
3,CC(=O)c1cnc2c(-c3ccc(Cl)cc3)c(C)nn2c1C,4.09
4,O=C1NCCN1Cc1ccc(Cl)cc1,14.4
5,CCCCCCCNC(=O)C1(CC2CC(c3ccc(Cl)cc3)=NO2)CCN(C(=O)C2(C)CC2)CC1 (stereo not shown),-21.1
6,Cc1cc(N/N=C/c2ccccc2F)nc(NCc2ccccc2)n1,10.6
7,O=C(O)C1C2C=CC(O2)C1C(=O)NCCCn1ccnc1 (stereo not shown),8.76
8,NC(=S)NNc1ccc(Cl)c(Cl)c1,13.9
9,Cc1cc(NC(=O)C2CCN(S(=O)(=O)Cc3ccccc3)CC2)ccc1-n1cnnn1,2.92
10,O=C(c1ccco1)N1CCN(C(=O)C2(S(=O)(=O)c3ccc(Cl)cc3)CC2)CC1,-12.8
11,COc1cc(-c2nnc(SCC(=O)/C(C#N)=C(\C)N)o2)cc(OC)c1OC,5.43
12,CCCCCn1c(=O)c(Cc2ccccc2)c(O)c2ccccc21,-5.8
13,O=C(CNC(=O)C1COc2ccccc2O1)N/N=C/c1ccc([N+](=O)[O-])cc1 (stereo not shown),-40
14,CC(NC(=O)/C(C#N)=C/c1cccs1)c1ccccc1 (stereo not shown),34.7
15,COc1ccc(NC(=O)C(NC(C)=O)C(=O)NCc2ccc(F)cc2)cc1 (stereo not shown),7.52
16,CCCCn1c(CCc2ccccc2)nc2cc3[nH]c(=O)c(C(C)C)nc3cc21,6.7
17,O=c1[nH]c(SCc2nc3ccccc3c(=O)n2-c2ccccc2)nc2ccccc12,0.0594
18,CSc1cccc(NC(=S)N(CCCN2CCC(C)CC2)Cc2cccs2)c1,-11.3
19,O=C(/C=C/c1ccc([N+](=O)[O-])cc1)Oc1ccc(/C=N/NC(=O)c2ccncc2)cc1,12.9
20,O=[N+]([O-])c1cccc(-c2n[nH]c(=S)n2-c2ccccc2)c1,15.8
21,CC(C)CCNc1ncnc2c1nnn2Cc1ccccc1,7.52
22,Cc1ccc(CNC(=O)CCc2c(C)[nH]c(=O)c(C#N)c2C)cc1,11.6

# Reference: publication PMC4336329 (PLoS ONE, 2015)
